This is one part of the list.
Molecular target: T1, OsWOX13 (Oryza sativa, UniProt Q5QMM3 1-267)
T1 sequence: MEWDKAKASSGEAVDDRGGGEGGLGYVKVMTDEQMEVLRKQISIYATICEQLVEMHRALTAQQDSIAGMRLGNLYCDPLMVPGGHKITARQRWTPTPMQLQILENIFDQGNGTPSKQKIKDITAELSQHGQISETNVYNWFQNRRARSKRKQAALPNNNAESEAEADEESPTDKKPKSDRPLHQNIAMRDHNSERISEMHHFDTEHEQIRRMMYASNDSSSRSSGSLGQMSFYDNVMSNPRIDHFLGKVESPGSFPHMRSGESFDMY
Assay: protein-binding microarray (RPBM); PBS, 2% BSA, 51.3 ng/ul salmon testes DNA, 50 uM zinc acetate, 200 nM TF, 25 C, 1 h; high values mean tight binding
Settings: protein: recombinant; tags: N-terminal polyhistidine and DsRed monomer fusion (pET32a); label: CyDye5-dUTP incorporated in the synthesized complementary strand; 3' TTTTT single-stranded linker to array surface; dsDNA, one strand shown
Method in brief: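 Binding signal is defined as the fluorescence intensity of each feature in arbitrary units, read on an Axon 4000B scanner. Transcription factors with N-terminal polyhistidine and DsRed fusions came from E. coli BL21-CodonPlus and were purified on Ni–NTA. They were incubated at 200 nM for 1 h at 25 °C on a custom Agilent array that had been made double-stranded with Cy5-dUTP, with 50 µM zinc acetate present, and the array was washed.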

Sequence | binding signal
CCTGGGCCAATCAAAAGCCGGTCCATTTGGCCCACTAACCCGGAGTCACCTAGTGCAG | 3170 fluorescence intensity (a.u.)
TAAATTTCCTGCAGATTGTCATGCAATCAGACATGCTCATCGGAGTCACCTAGTGCAG | 5960 fluorescence intensity (a.u.)
CCTCAATAAATTAACTTAACAGAAATACAATACATGTACGCGGAGTCACCTAGTGCAG | 10900 fluorescence intensity (a.u.)
CAAACATAATGATGATACAAATATTTGTTAATATTGTTCGCGGAGTCACCTAGTGCAG | 7430 fluorescence intensity (a.u.)
TTCAAATTTAAGGTTGAAAATTTAAAGTTTGGCTGATAAGCGGAGTCACCTAGTGCAG | 4040 fluorescence intensity (a.u.)
CTGACATCATCATCAAATTAGGGGACAATTGGAATTCTATCGGAGTCACCTAGTGCAG | 13600 fluorescence intensity (a.u.)
ACGTGCGAGATAGATGAAAATGAAATTTATTTTAAGGCTGCGGAGTCACCTAGTGCAG | 4480 fluorescence intensity (a.u.)
ACGTTTTAAAATGTTTTAGATTAGACACATGGAAAACAGTCGGAGTCACCTAGTGCAG | 3330 fluorescence intensity (a.u.)
ATTTTGTGATTAGTCTCTTGTGATTAAGAGAAAATTATGGCGGAGTCACCTAGTGCAG | 29800 fluorescence intensity (a.u.)
ATTGATTGACCGAGCGCACTACTCTTTATCTTTTCGATTGCGGAGTCACCTAGTGCAG | 64900 fluorescence intensity (a.u.)
TATATATATTTAAATTTAATGCTATTTATCTCATATGATGCGGAGTCACCTAGTGCAG | 4080 fluorescence intensity (a.u.)
GCACCAATTAATATTGGAGCTATCGTTCTTCTTCCCATCACGGAGTCACCTAGTGCAG | 3290 fluorescence intensity (a.u.)
AATAAACTCTGAGCAGATTGATGGCCCAACAGTTTCATGGCGGAGTCACCTAGTGCAG | 25700 fluorescence intensity (a.u.)
ATAATAAAATGCTAATTTGCTGGAGTACTAGATTATAGACCGGAGTCACCTAGTGCAG | 14900 fluorescence intensity (a.u.)
AGATCAATCACATATAGATATAGCTAGATTGCTATAGACACGGAGTCACCTAGTGCAG | 34400 fluorescence intensity (a.u.)
CAGAATGACTACTAAACTGGACAGAGGGAGTATATCTGTACGGAGTCACCTAGTGCAG | 3950 fluorescence intensity (a.u.)
GAGTAGTTAATTATTCCGGGAATACAACCCAGCCAAGCAACGGAGTCACCTAGTGCAG | 6250 fluorescence intensity (a.u.)
ATCCAAATTGGACCCATCTAGTTGCCCCGGCCCAACACGGCGGAGTCACCTAGTGCAG | 10000 fluorescence intensity (a.u.)
GGTAAATTGCAATACTCCGGATGTTCAGAGACAATAAGAGCGGAGTCACCTAGTGCAG | 13900 fluorescence intensity (a.u.)
ACTTTTCCGTCACATCGTTCTAATTTCTTCAAACTTCTAACGGAGTCACCTAGTGCAG | 3750 fluorescence intensity (a.u.)
AGGTAATTAAGATATGAATAGAAATACCATATCTCTATCTCGGAGTCACCTAGTGCAG | 21500 fluorescence intensity (a.u.)
GATAACTGGATTCATCTGTCTCCTCAACGTGTGGTCTGTACGGAGTCACCTAGTGCAG | 19900 fluorescence intensity (a.u.)
AAAACTAATTTTATAACTCACCTGGAAACCGCGAGATGAACGGAGTCACCTAGTGCAG | 4940 fluorescence intensity (a.u.)
GCAAGACAGATTTGCTACGAAAGTGTGTTGGTTGGTGGCACGGAGTCACCTAGTGCAG | 6420 fluorescence intensity (a.u.)
ATAAGTGATTTTAATATTTTGCTTGCACCGTTTGAGCATTCGGAGTCACCTAGTGCAG | 9340 fluorescence intensity (a.u.)
GTAAACTATTAGATTGGTTATAGATGAATTGAAGCTAGTACGGAGTCACCTAGTGCAG | 23500 fluorescence intensity (a.u.)
TCTGACAAGGGACTGACAGGATATAAACCGGGACTAAAGACGGAGTCACCTAGTGCAG | 8410 fluorescence intensity (a.u.)

Sequence | binding signal
TGTTAGATTTAATGTAATTGATTTGATATTTTAGATATTGCGGAGTCACCTAGTGCAG | 49700 fluorescence intensity (a.u.)
TGATTGTGTGATTGATGATTAGTGTGTGTATGACTGTATCCGGAGTCACCTAGTGCAG | 31400 fluorescence intensity (a.u.)
TTTAAAATTATAGATTAGAAAACAAATTTGTCATGTAGAACGGAGTCACCTAGTGCAG | 18100 fluorescence intensity (a.u.)
TATATATATATATATATATATATATACATTAACTAATCTTCGGAGTCACCTAGTGCAG | 20400 fluorescence intensity (a.u.)
TTTTAAATTTATTTGAATTTAAGAAGGTTGCCATGGTTTTCGGAGTCACCTAGTGCAG | 9530 fluorescence intensity (a.u.)
TAATTTCTGGATTATCACGAGATTGGAAATTTGGAAGGTTCGGAGTCACCTAGTGCAG | 6140 fluorescence intensity (a.u.)
CAACAGGATTGGAAGTGATCAGAGACAGGCAATGAAATCCCGGAGTCACCTAGTGCAG | 8460 fluorescence intensity (a.u.)
GCAGTAGTAGTTGTGATTGGTTAAGATAAATAGATTGTTGCGGAGTCACCTAGTGCAG | 13900 fluorescence intensity (a.u.)
GCGTTGATGAGTCGTATTAACGATCACTTCTTCTCTTTATCGGAGTCACCTAGTGCAG | 5520 fluorescence intensity (a.u.)
ACAGATTGATGTTATACAAGAAGAATATAATAACATTAGTCGGAGTCACCTAGTGCAG | 36800 fluorescence intensity (a.u.)
CTTGATTGCCCACTTTGGCAATTGTAAAACCGACAAGTAGCGGAGTCACCTAGTGCAG | 47200 fluorescence intensity (a.u.)
GATAATTGTCACGGAATCTGTGGTTTTCCGTCCAATGAATCGGAGTCACCTAGTGCAG | 25800 fluorescence intensity (a.u.)
CGTCCACTCCAATTACATCCATCCATCCGCTCTGCAACCTCGGAGTCACCTAGTGCAG | 3610 fluorescence intensity (a.u.)
AAACAGATTGACTTTAACCAAACTCAAAACGTAAAATAACCGGAGTCACCTAGTGCAG | 17500 fluorescence intensity (a.u.)
TAAAATTTAAATTTTGGCTAATAAGTATAAGCATAACTGTCGGAGTCACCTAGTGCAG | 15300 fluorescence intensity (a.u.)
ACTGTAAACAACTTCTGGTTTGATTGGAATAAATAAATAACGGAGTCACCTAGTGCAG | 3270 fluorescence intensity (a.u.)
AGATAATTTAATTTCTTGGCATTAACAATAACTACACCAACGGAGTCACCTAGTGCAG | 41500 fluorescence intensity (a.u.)
GTTAGTCAATTAATTAACGGATTAATTTGAGAAGGACACTCGGAGTCACCTAGTGCAG | 34200 fluorescence intensity (a.u.)
TGTTGTAATGAGGATGCATGATTGCTTATTTGCTTTATTTCGGAGTCACCTAGTGCAG | 5760 fluorescence intensity (a.u.)
CACATAACATGGAAATTAGATTTGCCAGAGAGGAGTAATGCGGAGTCACCTAGTGCAG | 9580 fluorescence intensity (a.u.)
ACTGTTGATAGAACCCTTGATGCCAAGGTTTTCAAAGGATCGGAGTCACCTAGTGCAG | 11600 fluorescence intensity (a.u.)
ATAATTGGAGATGACAATGACAAATAGTTAGGGAGTACTCCGGAGTCACCTAGTGCAG | 16800 fluorescence intensity (a.u.)
TTTGATTTGGAAGGATTTGGATTCGGAATTGAACTCGACGCGGAGTCACCTAGTGCAG | 28100 fluorescence intensity (a.u.)
GATTGATGTGATTTAAATTATCCTTAGTCTTAGTGCATAACGGAGTCACCTAGTGCAG | 50900 fluorescence intensity (a.u.)
AGGCAAACTAACATGATGATTTTCATGATCATTAAACACCCGGAGTCACCTAGTGCAG | 7680 fluorescence intensity (a.u.)
AGTAATTATTATCACCTTATAGTTTGAATTATCTTAATAACGGAGTCACCTAGTGCAG | 7450 fluorescence intensity (a.u.)
TCTTTGTTATAATTATGGGGTTGGTTTTATTCGTTTTCGACGGAGTCACCTAGTGCAG | 9780 fluorescence intensity (a.u.)
